In the supplement of paper PMC7826260:
The other results are listed elsewhere or left out. The data describe in vitro nicking of single-stranded DNA by Rep domains at 3 µM enzyme and 37 °C for 1 h; the strands have 90 letters, of which the middle is given. The score is log2 (uncut reads / reads without enzyme); the lower, the more was cut; hits are not called. The scaling is to total reads; where an enzyme cuts many sequences, the uncut ones exceed 0.

What was measured:
Assay in all cases: uncleaved DNA left, log2 of reads against the no-enzyme library (log2 ratio); higher = less cleavage (more negative = more Rep cleavage of the k-mer); sequences stand for … in CTCGTCCG…ACCGGAGA
[1] = tested on: T1, Rep nickase domain of Muscovy duck circovirus
T1 sequence (residues 1-111 of Rep, tag left off): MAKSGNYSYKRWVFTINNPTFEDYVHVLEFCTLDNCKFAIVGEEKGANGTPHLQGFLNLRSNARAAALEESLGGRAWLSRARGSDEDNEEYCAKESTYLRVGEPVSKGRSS
Procedure: (§1)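 A pool of 90-nt single-stranded DNAs with seven random bases just before the constant AC of the nick site (name = the seven bases) was cut by 3 µM recombinant His6-SUMO-tagged Rep nickase domain (300 nM DNA, 50 mM HEPES pH 8.0, 50 mM NaCl, 1 mM MnCl2, 1 h, 37 °C, three replicates). Uncut DNA was amplified and sequenced.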

[2] = tested on: T2, Rep nickase domain of banana bunchy top virus
T2 sequence (residues 1-94 of Rep, tag left off): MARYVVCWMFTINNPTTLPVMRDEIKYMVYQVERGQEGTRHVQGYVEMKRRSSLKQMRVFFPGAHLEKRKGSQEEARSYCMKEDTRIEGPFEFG
Procedure: as §1

[3] = tested on: T3, Rep nickase domain of cabbage leaf curl virus
T3 sequence (residues 1-116 of Rep, tag left off): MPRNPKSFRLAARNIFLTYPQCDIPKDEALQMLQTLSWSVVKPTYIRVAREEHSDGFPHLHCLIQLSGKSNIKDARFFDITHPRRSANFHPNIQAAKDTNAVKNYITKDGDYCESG
Procedure: as §1

[4] = tested on: T4, Rep nickase domain of chickpea chlorotic dwarf virus
T4 sequence (residues 1-124 of Rep, tag left off): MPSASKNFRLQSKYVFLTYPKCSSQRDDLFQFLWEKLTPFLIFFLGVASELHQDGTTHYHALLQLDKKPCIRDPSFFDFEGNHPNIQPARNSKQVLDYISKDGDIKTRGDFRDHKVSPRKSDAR
Procedure: as §1

[5] = tested on: T5, Rep nickase domain of faba bean necrotic yellows virus
T5 sequence (residues 1-98 of Rep, tag left off): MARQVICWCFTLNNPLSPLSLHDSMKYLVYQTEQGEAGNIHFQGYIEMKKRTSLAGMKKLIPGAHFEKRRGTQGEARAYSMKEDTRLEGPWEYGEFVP
Procedure: as §1

[6] = tested on: T6, Rep nickase domain of maize striate mosaic virus
T6 sequence (residues 1-117 of Rep, tag left off): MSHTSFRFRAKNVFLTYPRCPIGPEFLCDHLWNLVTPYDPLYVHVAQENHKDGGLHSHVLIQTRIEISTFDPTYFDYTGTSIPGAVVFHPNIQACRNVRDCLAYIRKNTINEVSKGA
Procedure: as §1

[7] = tested on: T7, Rep nickase domain of porcine circovirus 2
T7 sequence (residues 2-116 of Rep, tag left off): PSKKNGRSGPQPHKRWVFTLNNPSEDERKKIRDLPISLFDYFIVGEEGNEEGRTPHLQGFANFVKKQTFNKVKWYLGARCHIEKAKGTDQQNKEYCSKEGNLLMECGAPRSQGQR
Procedure: as §1

[8] = tested on: T8, Rep nickase domain of tomato golden mosaic virus
T8 sequence (residues 1-124 of Rep, tag left off): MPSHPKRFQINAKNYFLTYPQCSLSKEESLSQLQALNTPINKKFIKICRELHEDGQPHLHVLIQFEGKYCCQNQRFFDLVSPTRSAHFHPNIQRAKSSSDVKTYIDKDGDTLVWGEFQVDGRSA
Procedure: as §1

[9] = tested on: T9, Rep nickase domain of tomato yellow leaf curl virus
T9 sequence (residues 1-136 of Rep, tag left off): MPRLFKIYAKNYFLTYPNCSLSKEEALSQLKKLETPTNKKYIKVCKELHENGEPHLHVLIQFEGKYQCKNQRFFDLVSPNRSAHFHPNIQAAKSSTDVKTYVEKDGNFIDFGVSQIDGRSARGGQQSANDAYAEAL
Procedure: as §1

[10] = tested on: T10, Rep nickase domain of wheat dwarf virus
T10 sequence (residues 1-137 of Rep, tag left off): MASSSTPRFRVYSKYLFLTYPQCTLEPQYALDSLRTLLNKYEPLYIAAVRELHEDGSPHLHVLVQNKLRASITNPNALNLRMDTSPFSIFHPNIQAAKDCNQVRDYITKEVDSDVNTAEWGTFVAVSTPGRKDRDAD
Procedure: as §1

Sequence	uncleaved DNA left (log2) [1]	uncleaved DNA left (log2) [2]	uncleaved DNA left (log2) [3]	uncleaved DNA left (log2) [4]	uncleaved DNA left (log2) [5]	uncleaved DNA left (log2) [6]	uncleaved DNA left (log2) [7]	uncleaved DNA left (log2) [8]	uncleaved DNA left (log2) [9]	uncleaved DNA left (log2) [10]
CGATCAT	-0.0277	0.0685	0.366	0.646	0.00417	0.698	-0.192	-0.108	0.143	0.165
CCTAGAT	0.0399	0.0225	0.193	0.475	-0.114	0.599	-0.0286	0.178	-0.205	0.0539
ACCTTGC	-0.0233	0.0345	-0.323	0.73	-0.0166	0.127	0.191	-0.0516	0.0944	-0.0963
TTATGTA	-0.547	-0.00744	0.0523	-0.969	0.0672	-0.203	-0.46	-0.11	0.0854	0.000106
TATGTGG	0.134	-0.00516	0.0383	0.306	0.0604	-0.122	0.0978	0.027	-0.0274	0.048
AACCAGG	0.0477	0.0191	0.181	0.748	0.0117	0.0559	0.0772	0.0774	-0.0441	0.122
ATAAGTC	0.107	-0.0167	-3.33	-2.85	-0.0173	-2.25	0.011	-0.898	-0.0451	-2.71
CCATATT	-3.94	-2.63	-3.4	-3.27	-0.481	-2.15	-4.09	-2.44	-0.179	-2.02
ATTCGCG	-0.119	-0.0561	-0.417	1.12	0.0114	0.202	0.0383	-0.0753	-0.00488	0.0211
CTGATCC	-0.0628	-0.111	0.0127	0.362	-0.257	0.167	-0.0379	-0.118	-0.108	-0.0453
AGTATGT	0.068	-0.0513	-0.0805	0.0805	0.00592	-0.0158	-3.16	-0.0362	0.116	-0.0315
AATCGTT	-0.246	-0.0898	-0.684	-2.84	0.00866	-1.01	-3.39	-0.189	-0.238	-0.165
GGGGATA	-0.0103	0.104	0.828	1.97	0.0317	2.32	0.22	0.038	-0.051	0.0615
GTCGACG	0.0116	0.0471	0.025	0.341	-0.00232	0.801	0.0426	0.192	0.0632	0.0239
CCGCCAG	0.0242	0.146	-0.357	-0.361	0.185	-0.559	0.175	0.185	0.077	-0.0764
GACTCGG	-0.067	-0.0324	0.451	1.4	0.0336	1.83	0.0974	0.0872	-0.0989	0.011
CCGTCTT	-1.85	-0.473	-0.887	-2.11	-1.01	-0.301	-2.88	-0.589	-0.111	-1.51
TCATATA	-0.0515	-0.123	-0.0227	-1.76	-0.0682	-0.614	-0.218	-0.0207	-0.0459	-0.0855
TGGGGCC	-0.106	0.00869	0.628	1.52	-0.0656	1.93	0.106	-0.0984	-0.058	-0.0768
CAACCGT	-0.0799	-0.0996	-0.752	-2.13	-0.137	-1.29	-0.454	-0.136	-0.208	-0.279
CAAGGAC	0.0166	0.132	0.279	1.2	0.0289	1.13	0.104	0.0829	0.0356	0.108
CTTAGTA	-0.0873	0.0126	-0.195	-1.25	-0.0812	-0.826	-0.271	-0.171	-0.081	-0.127
GCATCGC	0.0455	0.0705	-0.432	-0.381	0.129	-0.75	0.263	0.117	0.172	-0.0435
CCTTCTC	-0.0479	-0.137	0.00545	-0.51	-0.0909	-0.731	-0.147	-0.242	-0.065	-0.178
CCCCATG	0.0889	-0.168	-0.744	-0.631	-0.0515	-1.16	-0.0871	-0.163	-0.129	-0.295
TCAAACT	-0.101	-0.102	-0.241	-2.84	0.0456	-0.784	-0.35	-0.0993	0.0156	-0.129
ACCGAAT	-0.00604	-0.0485	0.109	0.000661	0.0252	-0.342	0.126	-0.0332	-0.044	-0.0107
AAATGAA	-0.213	0.0431	-0.226	-0.72	0.0823	-0.567	-1.3	0.0188	-0.0293	-0.048
TCAAGTA	0.0595	0.169	0.104	-0.717	0.159	-0.372	-0.0012	0.125	0.139	0.0356
ATGTAAC	0.0115	-0.106	-0.52	-1.43	-0.0372	-0.746	-0.075	0.0406	-0.0374	-0.0974
